# The supplement of paper PMC8728848
# Some of the results follow.
# B1: PX9961T-pdi-555-33-555 (Parabacteroides distasonis) (protein)
# chain: FDEETAFQSPTLVYVNTVASLYNNMFKIMGNDRHVYDLNTFSSDEAMLPCRIGDWEDGGLWQNIFLHRWGTMNDLTKNSWDFLYEQIGKCNQSVDKLQAFAEEQPDVEYFKVYLEEVRAVRAFFYYELLDLFARVPLVTSSTTPMSEVKQSERSVVFNFVRSELEEALPYLSDNRSNQKGEYYGRITKPVAYMILAKLALNAEVYADDNWTDGNRPAGKNIKFTVDGKEMNAWEATIAYVDKLEALGYKLQGNFSENFAVANETSVENIFTVPMDPVAYPDAKDYNLVRTRHYDHATAYGQSGWNGSCATVKAMNVFKFGTADEDPRCKLTYFTGEVTGPDGKTIYTEWDGQKVPLKYEPNAPKVYMDASDGLLVKTAGARMAKYEFDQNAQDGGNLHGNDCVIFRFADALLMKAEAKIRLGQNGDDEVNQVRNRVGAKPLQNVTLDTLLDERMLELAWEGVRRQDLIRFGKFTEATVDRYVGVKHFASSLDYQEDKTGYTTVFSIYADILSLNPNLTQNPGY
# What was measured:
# Test in all cases: glycan array binding signal (z-score within array); higher = stronger binding
# Settings in all cases: glycan notation: IUPAC condensed, linker removed
# Fuc(a1-2)Gal = biological target: Fuc(a1-2)Gal
# Summary of the method: (§1)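 Glycan array data were curated from 3228 arrays in the Consortium for Functional Glycomics database and kept only where the protein sequence was available. Glycan names were converted to IUPAC-condensed notation, and columns mapping to the same glycan were averaged. The binding signal is a within-array Z-score, averaged across arrays of the same protein sequence at different concentrations or buffers and across linkers. Negative Z-scores can be read as non-binding.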
# Fuc(a1-2)Gal(b1-3)GalNAc = biological target: Fuc(a1-2)Gal(b1-3)GalNAc
# Summary of the method: as §1
# [1] = biological target: Fuc(a1-2)Gal(b1-3)GalNAc(a1-3)[Fuc(a1-2)]Gal(b1-4)Glc
# Summary of the method: as §1
# [2] = biological target: Fuc(a1-2)Gal(b1-3)GalNAc(a1-3)[Fuc(a1-2)]Gal(b1-4)GlcNAc
# Summary of the method: as §1
# [3] = biological target: Fuc(a1-2)Gal(b1-3)GalNAc(b1-3)Gal
# Summary of the method: as §1
# [4] = biological target: Fuc(a1-2)Gal(b1-3)GalNAc(b1-3)Gal(a1-4)Gal(b1-4)Glc
# Summary of the method: as §1
# [5] = biological target: Fuc(a1-2)Gal(b1-3)GalNAc(b1-4)[Neu5Ac(a2-3)]Gal(b1-4)Glc
# Summary of the method: as §1
# Fuc(a1-2)Gal(b1-3)GlcNAc = biological target: Fuc(a1-2)Gal(b1-3)GlcNAc
# Summary of the method: as §1
# [6] = biological target: Fuc(a1-2)Gal(b1-3)GlcNAc(b1-2)Man(a1-3)[Fuc(a1-2)Gal(b1-3)GlcNAc(b1-2)Man(a1-6)]Man(b1-4)GlcNAc(b1-4)GlcNAc
# Summary of the method: as §1
# [7] = biological target: Fuc(a1-2)Gal(b1-3)GlcNAc(b1-2)Man(a1-3)[Fuc(a1-2)Gal(b1-3)GlcNAc(b1-2)Man(a1-6)]Man(b1-4)GlcNAc(b1-4)[Fuc(a1-6)]GlcNAc
# Summary of the method: as §1
# [8] = biological target: Fuc(a1-2)Gal(b1-3)GlcNAc(b1-3)Gal(b1-4)Glc
# Summary of the method: as §1
# [9] = biological target: Fuc(a1-2)Gal(b1-3)GlcNAc(b1-3)GalNAc
# Summary of the method: as §1
# [10] = biological target: Fuc(a1-2)Gal(b1-3)GlcNAc(b1-3)[Fuc(a1-2)Gal(b1-3)GlcNAc(b1-6)]GalNAc
# Summary of the method: as §1
# [11] = biological target: Fuc(a1-2)Gal(b1-3)GlcNAc(b1-3)[Gal(b1-4)GlcNAc(b1-6)]Gal(b1-4)Glc
# Summary of the method: as §1
# [12] = biological target: Fuc(a1-2)Gal(b1-3)GlcNAc(b1-3)[Neu5Ac(a2-6)Gal(b1-4)GlcNAc(b1-6)]Gal(b1-4)Glc
# Summary of the method: as §1
# [13] = biological target: Fuc(a1-2)Gal(b1-3)GlcNAc6S
# Summary of the method: as §1
# [14] = biological target: Fuc(a1-2)Gal(b1-3)[Fuc(a1-4)]GlcNAc
# Summary of the method: as §1
# [15] = biological target: Fuc(a1-2)Gal(b1-3)[Fuc(a1-4)]GlcNAc(b1-2)Man(a1-3)[Fuc(a1-2)Gal(b1-3)[Fuc(a1-4)]GlcNAc(b1-2)Man(a1-3)]Man(b1-4)GlcNAc(b1-4)GlcNAc
# Summary of the method: as §1
# [16] = biological target: Fuc(a1-2)Gal(b1-3)[Fuc(a1-4)]GlcNAc(b1-2)Man(a1-3)[Fuc(a1-2)Gal(b1-3)[Fuc(a1-4)]GlcNAc(b1-2)Man(a1-6)]Man(b1-4)GlcNAc(b1-4)[Fuc(a1-6)]GlcNAc(b1-4)[Fuc(a1-6)]GlcNAc
# Summary of the method: as §1
# [17] = biological target: Fuc(a1-2)Gal(b1-3)[Fuc(a1-4)]GlcNAc(b1-3)[Fuc(a1-3)[Gal(b1-4)]GlcNAc(b1-6)]Gal(b1-4)Glc
# Summary of the method: as §1
# [18] = biological target: Fuc(a1-2)Gal(b1-3)[Fuc(a1-4)]GlcNAc(b1-3)[Gal(b1-4)GlcNAc(b1-6)]Gal(b1-4)Glc
# Summary of the method: as §1
# Fuc(a1-2)Gal(b1-4)Glc = biological target: Fuc(a1-2)Gal(b1-4)Glc
# Summary of the method: as §1
# Fuc(a1-2)Gal(b1-4)Glc6S = biological target: Fuc(a1-2)Gal(b1-4)Glc6S
# Summary of the method: as §1
# Fuc(a1-2)Gal(b1-4)GlcNAc = biological target: Fuc(a1-2)Gal(b1-4)GlcNAc
# Summary of the method: as §1
# [19] = biological target: Fuc(a1-2)Gal(b1-4)GlcNAc(b1-2)Man
# Summary of the method: as §1
# [20] = biological target: Fuc(a1-2)Gal(b1-4)GlcNAc(b1-2)Man(a1-3)[Fuc(a1-2)Gal(b1-4)GlcNAc(b1-2)Man(a1-6)]Man(b1-4)GlcNAc(b1-4)GlcNAc
# Summary of the method: as §1
# [21] = biological target: Fuc(a1-2)Gal(b1-4)GlcNAc(b1-2)Man(a1-3)[Fuc(a1-2)Gal(b1-4)GlcNAc(b1-2)Man(a1-6)]Man(b1-4)GlcNAc(b1-4)[Fuc(a1-6)]GlcNAc
# Summary of the method: as §1
# [22] = biological target: Fuc(a1-2)Gal(b1-4)GlcNAc(b1-2)[Fuc(a1-2)Gal(b1-4)GlcNAc(b1-4)]Man(a1-3)[Fuc(a1-2)Gal(b1-4)GlcNAc(b1-2)Man(a1-6)]Man(b1-4)GlcNAc(b1-4)GlcNAc
# Summary of the method: as §1
# [23] = biological target: Fuc(a1-2)Gal(b1-4)GlcNAc(b1-3)Gal(b1-4)GlcNAc
# Summary of the method: as §1
# [24] = biological target: Fuc(a1-2)Gal(b1-4)GlcNAc(b1-3)Gal(b1-4)GlcNAc(b1-2)Man(a1-3)[Fuc(a1-2)Gal(b1-4)GlcNAc(b1-3)Gal(b1-4)GlcNAc(b1-2)Man(a1-6)]Man(b1-4)GlcNAc(b1-4)GlcNAc
# Summary of the method: as §1
binder,measurement,setting,value
B1,glycan array binding signal (z-score),Fuc(a1-2)Gal,-0.668
same,glycan array binding signal (z-score),Fuc(a1-2)Gal(b1-3)GalNAc,0.291
same,glycan array binding signal (z-score),[1],-0.139
same,glycan array binding signal (z-score),[2],0.191
same,glycan array binding signal (z-score),[3],-0.475
same,glycan array binding signal (z-score),[4],-0.258
same,glycan array binding signal (z-score),[5],0.436
same,glycan array binding signal (z-score),Fuc(a1-2)Gal(b1-3)GlcNAc,0.033
same,glycan array binding signal (z-score),[6],-0.549
same,glycan array binding signal (z-score),[7],0.178
same,glycan array binding signal (z-score),[8],-0.312
same,glycan array binding signal (z-score),[9],0.217
same,glycan array binding signal (z-score),[10],-0.068
same,glycan array binding signal (z-score),[11],-0.271
same,glycan array binding signal (z-score),[12],-0.731
same,glycan array binding signal (z-score),[13],0.963
same,glycan array binding signal (z-score),[14],-0.23
same,glycan array binding signal (z-score),[15],0.476
same,glycan array binding signal (z-score),[16],0.165
same,glycan array binding signal (z-score),[17],0.077
same,glycan array binding signal (z-score),[18],0.563
same,glycan array binding signal (z-score),Fuc(a1-2)Gal(b1-4)Glc,0.293
same,glycan array binding signal (z-score),Fuc(a1-2)Gal(b1-4)Glc6S,-0.659
same,glycan array binding signal (z-score),Fuc(a1-2)Gal(b1-4)GlcNAc,0.043
same,glycan array binding signal (z-score),[19],-0.007
same,glycan array binding signal (z-score),[20],1.91
same,glycan array binding signal (z-score),[21],0.812
same,glycan array binding signal (z-score),[22],0.759
same,glycan array binding signal (z-score),[23],-0.156
same,glycan array binding signal (z-score),[24],0.962
